Data taken from article PMC9911399, “Two distinct binding modes provide the RNA-binding protein RbFox with extraordinary sequence specificity”.
Residue numbers refer to the chain shown, from its start. The list shows a part of the results.

B1: GGGAUAA (DNA:RNA)
RNA: GGGAGACCGGAAUUCAGAUUGUCCGGGAUAAUUAAAUCCCGUCGUAGCCACCA
DNA 1: CAATCTGAATTCCGGTCTCCC
DNA 2: TGGTGGCTACGACGGGATT
B2: ACAAAAA (DNA:RNA)
RNA: B1 RNA with G25A, G26C, G27A, U29A
DNA 1: CAATCTGAATTCCGGTCTCCC
DNA 2: TGGTGGCTACGACGGGATT
B3: CUCCGAG (DNA:RNA)
RNA: B1 RNA with G25C, G26U, G27C, A28C, U29G, A31G
DNA 1: CAATCTGAATTCCGGTCTCCC
DNA 2: TGGTGGCTACGACGGGATT
B4: GUGAGAG (DNA:RNA)
RNA: B1 RNA with G26U, U29G, A31G
DNA 1: CAATCTGAATTCCGGTCTCCC
DNA 2: TGGTGGCTACGACGGGATT
B5: AUUCGAA (DNA:RNA)
RNA: B1 RNA with G25A, G26U, G27U, A28C, U29G
DNA 1: CAATCTGAATTCCGGTCTCCC
DNA 2: TGGTGGCTACGACGGGATT
B6: UAACGCC (DNA:RNA)
RNA: GGGAGACCGGAAUUCAGAUUGUCCUAACGCCUUAAAUCCCGUCGUAGCCACCA
DNA 1: CAATCTGAATTCCGGTCTCCC
DNA 2: TGGTGGCTACGACGGGATT
B7: CGUUGUA (DNA:RNA)
RNA: B1 RNA with G25C, G27U, A28U, U29G, A30U
DNA 1: CAATCTGAATTCCGGTCTCCC
DNA 2: TGGTGGCTACGACGGGATT
B8: UCAGUCU (DNA:RNA)
RNA: B6 RNA with A26C, C28G, G29U, C31U
DNA 1: CAATCTGAATTCCGGTCTCCC
DNA 2: TGGTGGCTACGACGGGATT
B9: CACCAUG (DNA:RNA)
RNA: B6 RNA with U25C, A27C, G29A, C30U, C31G
DNA 1: CAATCTGAATTCCGGTCTCCC
DNA 2: TGGTGGCTACGACGGGATT
B10: AAUUAUG (DNA:RNA)
RNA: B6 RNA with U25A, A27U, C28U, G29A, C30U, C31G
DNA 1: CAATCTGAATTCCGGTCTCCC
DNA 2: TGGTGGCTACGACGGGATT
B11: AGCGAUG (DNA:RNA)
RNA: B1 RNA with G25A, G27C, A28G, U29A, A30U, A31G
DNA 1: CAATCTGAATTCCGGTCTCCC
DNA 2: TGGTGGCTACGACGGGATT
B12: AUACACC (DNA:RNA)
RNA: B6 RNA with U25A, A26U, G29A
DNA 1: CAATCTGAATTCCGGTCTCCC
DNA 2: TGGTGGCTACGACGGGATT
B13: GCAAGUC (DNA:RNA)
RNA: B6 RNA with U25G, A26C, C28A, C30U
DNA 1: CAATCTGAATTCCGGTCTCCC
DNA 2: TGGTGGCTACGACGGGATT
B14: CAAGUUC (DNA:RNA)
RNA: B6 RNA with U25C, C28G, G29U, C30U
DNA 1: CAATCTGAATTCCGGTCTCCC
DNA 2: TGGTGGCTACGACGGGATT
B15: GGGUGGA (DNA:RNA)
RNA: B1 RNA with A28U, U29G, A30G
DNA 1: CAATCTGAATTCCGGTCTCCC
DNA 2: TGGTGGCTACGACGGGATT
B16: AGGAACA (DNA:RNA)
RNA: B1 RNA with G25A, U29A, A30C
DNA 1: CAATCTGAATTCCGGTCTCCC
DNA 2: TGGTGGCTACGACGGGATT
B17: AUGCAAG (DNA:RNA)
RNA: B1 RNA with G25A, G26U, A28C, U29A, A31G
DNA 1: CAATCTGAATTCCGGTCTCCC
DNA 2: TGGTGGCTACGACGGGATT
B18: AUUUCGG (DNA:RNA)
RNA: GGGAGACCGGAAUUCAGAUUGUCCAUUUCGGUUAAAUCCCGUCGUAGCCACCA
DNA 1: CAATCTGAATTCCGGTCTCCC
DNA 2: TGGTGGCTACGACGGGATT
B19: ACCUUGU (DNA:RNA)
RNA: B18 RNA with U26C, U27C, C29U, G31U
DNA 1: CAATCTGAATTCCGGTCTCCC
DNA 2: TGGTGGCTACGACGGGATT
B20: CAACACU (DNA:RNA)
RNA: B6 RNA with U25C, G29A, C31U
DNA 1: CAATCTGAATTCCGGTCTCCC
DNA 2: TGGTGGCTACGACGGGATT

Target: T1, RBFOX1 RRM RbFoxmut (Fox-RRM*) (Homo sapiens, UniProt Q9NWB1 109-208, R118D;E147R;N151S;E152T)
T1 sequence: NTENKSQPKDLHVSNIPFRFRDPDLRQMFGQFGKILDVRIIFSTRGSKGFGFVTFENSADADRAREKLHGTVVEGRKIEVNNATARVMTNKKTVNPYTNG
Assay: EMSA; HiTS-Eq, 1 nM pool, 10 min; buffer printed only for the single-RNA assays: 10 mM Tris pH 7.5, 150 mM NaCl, 3.4 mM EDTA, 0.001% NP-40, 30 C
Conditions: tags: His6 N-terminal (pET28a); label: 5' 32P
Method in brief: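 Relative association constants, normalised to the cognate motif, were derived by comparing read counts of each RNA species with those of the control reaction. The RNA sequenced was the free fraction, separated by 8% native PAGE after a 10 min equilibration in 50 µL of 1 nM 5′-radiolabelled RNA (7 randomized nucleotides) with increasing concentrations of purified wild-type or mutant RbFox RRM.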

Row | Binder | binding signal
1 | B1 | 0.118 KA relative to UGCAUGU
2 | B2 | 0.0956 KA relative to UGCAUGU
3 | B3 | 0.0995 KA relative to UGCAUGU
4 | B4 | 0.133 KA relative to UGCAUGU
5 | B5 | 0.114 KA relative to UGCAUGU
6 | B6 | 0.072 KA relative to UGCAUGU
7 | B7 | 0.258 KA relative to UGCAUGU
8 | B8 | 0.0639 KA relative to UGCAUGU
9 | B9 | 0.11 KA relative to UGCAUGU
10 | B10 | 0.125 KA relative to UGCAUGU
11 | B11 | 0.163 KA relative to UGCAUGU
12 | B12 | 0.0602 KA relative to UGCAUGU
13 | B13 | 0.058 KA relative to UGCAUGU
14 | B14 | 0.0878 KA relative to UGCAUGU
15 | B15 | 0.0811 KA relative to UGCAUGU
16 | B16 | 0.082 KA relative to UGCAUGU
17 | B17 | 0.131 KA relative to UGCAUGU
18 | B18 | 0.0638 KA relative to UGCAUGU
19 | B19 | 0.161 KA relative to UGCAUGU
20 | B20 | 0.0603 KA relative to UGCAUGU
